Experimental findings from the antibiotic and cytotoxicity screens of Wong et al. (2023) are described below.

The list shows a part of the results.

The subject of one assay is HSkMC. Briefly: cytotoxicity call (relative viability < 0.9). The conditions noted are these: 10 µM.
In another assay the test system is HepG2. In words: cytotoxicity call (relative viability < 0.9). The conditions noted are these: 10 µM.
A further assay relates to S. aureus RN4220. In words: growth inhibition call (relative growth <= 0.2). The following applies: 50 µM.

With `CC1(N)CCN(c2cnc(-c3cccc(Cl)c3Cl)c(N)n2)CC1`, the cytotoxicity call in the assay with HSkMC and in the assay on HepG2 was “inactive” in each case. The growth inhibition call in the assay on S. aureus RN4220 was “inactive”.

On to `C[C@@H]1CN([C@H](C)CO)C(=O)Cc2cc(NC(=O)CCN3CCOCC3)ccc2O[C@@H]1CN(C)S(=O)(=O)c1ccc(Cl)cc1`, for which the cytotoxicity call in the assay on HSkMC and in the assay on HepG2 was “inactive” in each case. In the assay on S. aureus RN4220, the growth inhibition call was “inactive”.

As to `COc1cccc(S(=O)(=O)N(C)C[C@H]2Oc3ncc(C#CCC(C)C)cc3C(=O)N([C@H](C)CO)C[C@H]2C)c1`, the cytotoxicity call with HSkMC and in the assay with HepG2 was “inactive” throughout. Moreover, the growth inhibition call with S. aureus RN4220 was “inactive”.

For the compound `C[C@@H]1CN([C@@H](C)CO)C(=O)c2cc(NS(=O)(=O)c3ccc(Cl)cc3)ccc2O[C@H]1CN(C)S(C)(=O)=O`, the cytotoxicity call with HSkMC and in the assay with HepG2 was “inactive” each time. In addition, the growth inhibition call with S. aureus RN4220 is “inactive”.

`CO[C@@H]1CN(C)C(=O)c2cc(NS(=O)(=O)c3ccccc3C)ccc2OC[C@H](C)N(S(C)(=O)=O)C[C@H]1C`: the cytotoxicity call in the assay with HSkMC and in the assay with HepG2 was “inactive” throughout. Also, in the assay on S. aureus RN4220, the growth inhibition call is “inactive”.

For the compound `CC(C)CC#Cc1ccc2c(c1)O[C@@H](CN(C)C(=O)c1ccncc1)[C@H](C)CN([C@@H](C)CO)S2(=O)=O`, the cytotoxicity call with HSkMC and with HepG2 was “inactive” each time. Further, the growth inhibition call in the assay with S. aureus RN4220 was “inactive”.

As for `C[C@H]1CN([C@@H](C)CO)C(=O)c2cc(C#Cc3ccccc3F)cnc2O[C@H]1CN(C)C(=O)c1ccc2c(c1)OCO2`, the cytotoxicity call in the assay on HSkMC and with HepG2 was “inactive” throughout. Also, in the assay on S. aureus RN4220, the growth inhibition call is “inactive”.

As to `C[C@H]1CN([C@@H](C)CO)C(=O)c2cccc(NC(=O)c3cnccn3)c2O[C@H]1CN(C)S(=O)(=O)c1ccccc1`, the cytotoxicity call in the assay with HSkMC and in the assay on HepG2 was “inactive” in each case. The growth inhibition call in the assay with S. aureus RN4220 is “inactive”.

With `COc1ccc(S(=O)(=O)N(C)C[C@H]2Oc3c(NC(=O)Cn4cnnn4)cccc3C(=O)N([C@H](C)CO)C[C@@H]2C)cc1`, the cytotoxicity call in the assay on HSkMC and in the assay on HepG2 was “inactive” each time. In addition, in the assay with S. aureus RN4220, the growth inhibition call was “inactive”.

On to `COc1ccc(NC(=O)N(C)C[C@H]2OCCCC[C@H](C)Oc3ccc(NC(=O)c4ccccc4)cc3C(=O)N([C@H](C)CO)C[C@@H]2C)cc1`, for which the cytotoxicity call in the assay with HSkMC and in the assay on HepG2 was “inactive” in each case. In addition, in the assay on S. aureus RN4220, the growth inhibition call was “inactive”.

In the case of `NC1=N[C@H]2CS[C@@H](CCCCC(=O)O)[C@H]2N1`, the cytotoxicity call in the assay with HSkMC and with HepG2 was “inactive” in each case. Also, in the assay with S. aureus RN4220, the growth inhibition call is “inactive”.

In the case of `C[C@H]1CCCCO[C@@H](CN(C)C(=O)C2CCCCC2)[C@@H](C)CN([C@@H](C)CO)C(=O)c2cc(NC(=O)Nc3ccc(C(F)(F)F)cc3)ccc2O1`, the cytotoxicity call in the assay with HSkMC is “inactive”. The cytotoxicity call in the assay with HepG2 was “active”. Besides, the growth inhibition call with S. aureus RN4220 was “inactive”.

As to `C[C@@H]1CN([C@H](C)CO)C(=O)c2cc(NC(=O)Nc3ccc(C(F)(F)F)cc3)ccc2O[C@H]1CN(C)C(=O)NC1CCCCC1`, the cytotoxicity call with HSkMC and in the assay with HepG2 was “inactive” each time. For the same compound, the growth inhibition call in the assay on S. aureus RN4220 was “inactive”.

Turning to `CN(C)C1CCN(C(=O)c2cnc(-c3noc4cc(-c5ccccc5C(F)(F)F)ccc34)s2)CC1`, the cytotoxicity call in the assay on HSkMC is “inactive”. In addition, in the assay with HepG2, the cytotoxicity call is “active”. In addition, in the assay with S. aureus RN4220, the growth inhibition call was “active”.

As for `C[C@@H]1CN([C@@H](C)CO)C(=O)c2cccc(NC(=O)CCCCCC(=O)Nc3ccccc3N)c2O[C@@H]1CN(C)Cc1ccc(Oc2ccccc2)cc1`, in the assay with HSkMC, the cytotoxicity call was “inactive”. For the same compound, in the assay with HepG2, the cytotoxicity call is “active”. The growth inhibition call in the assay with S. aureus RN4220 is “inactive”.

`CN(C)CCOc1ccc(CN)cc1`: the cytotoxicity call with HSkMC and in the assay with HepG2 was “inactive” in each case. For the same compound, the growth inhibition call with S. aureus RN4220 was “inactive”.

Turning to `Cc1cc(C)c2c(c1)NC(=O)C[C@H]2c1cccc(Cl)c1Cl`, the cytotoxicity call with HSkMC was “inactive”. In addition, in the assay on HepG2, the cytotoxicity call is “active”. In the assay with S. aureus RN4220, the growth inhibition call is “inactive”.

`C[C@@H]1CCCCO[C@@H](CN(C)C(=O)Nc2ccccc2)[C@@H](C)CN([C@H](C)CO)C(=O)c2cc(NC(=O)Nc3ccc4c(c3)OCO4)ccc2O1`: the cytotoxicity call in the assay on HSkMC and in the assay with HepG2 was “inactive” in each case. In the assay on S. aureus RN4220, the growth inhibition call is “inactive”.

With `C[C@@H]1CN([C@H](C)CO)C(=O)c2cccc(NC(=O)c3ccc(-c4nccs4)cc3)c2O[C@H]1CN(C)Cc1ccc(Oc2ccccc2)cc1`, the cytotoxicity call in the assay with HSkMC and in the assay with HepG2 was “inactive” in each case. Further, the growth inhibition call in the assay with S. aureus RN4220 was “inactive”.

Consider `C[C@H]1CN([C@@H](C)CO)C(=O)Cc2cc(NS(=O)(=O)c3ccccc3)ccc2O[C@H]1CN(C)S(=O)(=O)c1cccs1`, for which the cytotoxicity call with HSkMC and in the assay with HepG2 was “inactive” each time. For the same compound, the growth inhibition call with S. aureus RN4220 was “inactive”.

For the compound `Cc1cc(Oc2ccnc3cc(Cl)ccc23)ccc1Cl`, the cytotoxicity call in the assay with HSkMC and in the assay on HepG2 was “inactive” throughout. Further, the growth inhibition call in the assay on S. aureus RN4220 is “inactive”.

`C=c1ccc(C)c2c1=C(O)C(=O)N2`: the cytotoxicity call with HSkMC and with HepG2 was “inactive” throughout. Besides, in the assay on S. aureus RN4220, the growth inhibition call is “inactive”.

`COc1ccc(S(=O)(=O)N(C)C[C@@H]2OCCCC[C@@H](C)Oc3ccc(NS(=O)(=O)c4ccc(Cl)cc4)cc3C(=O)N([C@@H](C)CO)C[C@H]2C)cc1`: the cytotoxicity call with HSkMC is “inactive”. For the same compound, in the assay with HepG2, the cytotoxicity call is “active”. Moreover, the growth inhibition call in the assay with S. aureus RN4220 was “inactive”.

Take `COC(=O)C[C@@H]1CC[C@@H]2[C@H](COC[C@@H](O)CN2S(=O)(=O)c2cn(C)cn2)O1`: the cytotoxicity call with HSkMC and in the assay on HepG2 was “inactive” throughout. In the assay with S. aureus RN4220, the growth inhibition call was “inactive”.

`COc1ccc(NC(=O)N(C)C[C@H]2OCCCC[C@H](C)Oc3ccc(NC(=O)Cc4ccccc4)cc3C(=O)N([C@H](C)CO)C[C@@H]2C)cc1`: the cytotoxicity call in the assay on HSkMC (human skeletal muscle cells) and with HepG2 was “inactive” throughout. The growth inhibition call in the assay with S. aureus RN4220 was “inactive”.

Regarding `CCCC#Cc1ccc2c(c1)O[C@H](CN(C)Cc1ccc3c(c1)OCO3)[C@@H](C)CN([C@H](C)CO)S2(=O)=O`, the cytotoxicity call with HSkMC and in the assay with HepG2 was “inactive” throughout. In the assay with S. aureus RN4220, the growth inhibition call was “inactive”.

Turning to `C[C@@H]1CN([C@H](C)CO)C(=O)c2cc(N(C)C)ccc2O[C@@H](C)CCCCO[C@@H]1CN(C)C(=O)Nc1ccc(C(F)(F)F)cc1`, the cytotoxicity call in the assay with HSkMC and in the assay with HepG2 was “inactive” in each case. The growth inhibition call in the assay with S. aureus RN4220 is “inactive”.

With `CCC(=O)Nc1nc2[nH]c(COC)cc(=O)n2n1`, the cytotoxicity call in the assay with HSkMC and in the assay with HepG2 was “inactive” throughout. For the same compound, in the assay with S. aureus RN4220, the growth inhibition call is “inactive”.
